# Assay results as given in ChEMBL document CHEMBL4888484, “Replenishing the malaria drug discovery pipeline: Screening and hit evaluation of the MMV Hit Generation Library 1 (HGL1) against asexual blood stage Plasmodium falciparum ,using a nano luciferase reporter read-out” (2022).
# Out of some 150,000 compounds screened, about 540 (0.36%) showed an effect of 50% or more. The list shows a part of the results.
# System: Plasmodium falciparum
# Test: Primary screen in NF54 nanoGlo assay, in single point, at 2uM, 72h; a lower Z score goes with more inhibition
# Type: functional, Erythrocyte
# Conditions: timepoint 72 hour
SMILES,% Inhibition [%],Z score
O=C(C[C@H]1C(=O)NCCN1Cc1cccnc1)NCCOc1ccccc1,10,-1.35
Cc1ccccc1NC(=O)N1C[C@H](O)[C@@H](N(C)Cc2cnn(C)c2)C1,-3,0.37
CCn1cc(-c2nc(C)c(C(=O)NCc3ccccn3)s2)c2cccnc21,-7,1.26
NC(=O)c1ccc(-c2ccccc2Oc2ccccc2)nc1,-6,0.81
Cc1noc(C)c1CC(=O)N1CC(F)(F)C[C@H]1c1nncn1CC1CC1,-7,0.91
C[C@@H](C(=O)Nc1ncccn1)N(C)Cc1cc(Cl)cc(Cl)c1,-46,5.44
O=C1CC[C@H](C(=O)N2CCN(c3ncccn3)CC2)CN1,34,-3.87
CC(C)n1nnnc1-c1ccc(NC(=O)[C@@H]2CCCO2)cc1F,10,-1.05
CCOCCCNC(=O)C1CCN(c2nnc(C)c3c(C)n(-c4ccc(OC)cc4)nc23)CC1,6,-0.75
Cc1cccc(NCC(=O)Nc2ncc(Cc3c(Cl)cccc3Cl)s2)c1,29,-3.25
CC(NC(=O)NCCC1Cc2ccccc2C1)C1CN(C)CCO1 (configuration not stated),-2,0.42
Cc1nc2c([nH]1)CN(CC1(C)CCOCC1)CC2,-6,1
CN(C)C(=O)N1CCC(CNC(=O)Cc2ccsc2)CC1,3,-0.36
O=C(NCc1ccncc1)c1nn(-c2ccccc2F)c(=O)n(Cc2ccc(C(F)(F)F)cc2)c1=O,5,-0.6
CC(C)Cc1cc(C(=O)N2CCc3nc(N)sc3C2)on1,-7,1.3
Cc1nn(-c2ccc(F)cc2)c2[nH]nc(NC(=O)Cc3ccon3)c12,-7,0.73
Cc1ccc(C(=O)N2CC3(C)CN(C(=O)c4ccc(C)cc4)CC(c4ccccc4)(C2)C3=O)cc1,4,-0.72
Cc1cnccc1NCCNc1cc([C@H]2CCOC2)ncn1,-7,1.07
Cc1cc(NC(=O)[C@@H]2CCCN2C(=O)c2cccs2)nc(-c2ccccc2)n1,-24,2.55
Cn1ccc(C(=O)N2CCO[C@H]2C(F)(F)F)n1,10,-1.25
C[C@]1(C(=O)Nc2cccnc2)CC1(F)F,-10,1.36
CCN(CC(=O)Nc1c(Cl)cccc1Cl)c1ncnc2onc(C)c12,-9,1.05

SMILES,% Inhibition [%],Z score
O=C1NN=C2CCC34CC12CCC3=NNC4=O,2,-0.18
Cc1cc(C(=O)N[C@@H](C)Cc2cccs2)no1,-1,0.25
CCN1CCN(c2c(CN(C(=O)Nc3cccc(F)c3)C(C)C)c(C)nn2-c2cccc(F)c2)CC1,3,-0.41
COC1(CS(=O)(=O)Nc2cc(N(C)C)ccc2C#N)CCCCC1,-16,2.47
Cc1nc(-c2cc(S(=O)(=O)Nc3ccc(C)c(C)c3)c(C)s2)cs1,-3,0.4
Cc1noc(C)c1CS(=O)(=O)Cc1ccn(C2CCCC2)n1,-11,1.07
CC(C)Cn1ncnc1CN[C@@H](C)c1cnn(C)c1,-3,0.39
COCCCn1c(=O)c2ccccc2n(CC(=O)N2CCCc3ccccc32)c1=O,35,-3.98
Cc1ccccc1NC(=O)COC(c1ccccc1)c1ccccc1,-7,1.01
CCCc1sc(NC(=O)c2sc(C)nc2C)nc1C(=O)OC,-14,1.8
N#Cc1ccccc1-c1cccc2cccnc12,-16,2.12
O=C1CO[C@H]2CCN(c3ccnc4ccsc34)C[C@@H]2N1,-8,1.18
O=c1c2cc(F)c(F)cc2ncn1CCN1CCOCC1,-5,0.97
Cc1nnc(CNC(=O)C2CN(S(C)(=O)=O)C2)o1,-9,1.38
Cc1cc(C)n(C2(c3ccccc3)CC(C)C(=O)O2)n1 (configuration not stated),-3,0.47
COCC(C)(C)NC(=O)Cc1cccc(N)c1,-30,3.52
CCCn1nccc1-c1cnc(-n2cnnc2)c(C)c1,-5,0.51
CCn1nccc1C(=O)N1CCC[C@H]1c1ncc(C)n1Cc1ccc(F)cc1,6,-0.76
CN(Cc1cc(Br)ccc1OC(F)F)C[C@H]1CCCCO1,-2,0.29
CCN(CC)S(=O)(=O)c1ccc2c(c1)nnn2CCC(=O)Nc1nccs1,-10,1.3
COc1cc(C)ccc1CN1CCN(Cc2ccccc2)C(=O)[C@@H]1C,-7,1.35
CN(CC(=O)N1CC[C@@H](c2ccccc2Cl)S(=O)(=O)CC1)S(C)(=O)=O,-6,1.01

SMILES,% Inhibition [%],Z score
Cc1nc2ccc(-n3nc(C4CC4)nc3-c3nn(C)cc3Cl)cc2s1,-6,0.94
COCc1cc(Cl)ccc1NC(=O)N1CCC[C@H](c2ccc(F)c(F)c2)C1,-3,0.36
c1ccc(-c2nnc(-c3cccnc3NCCN3CCOCC3)o2)cc1,-31,2.98
Cc1ccccc1OC[C@@H](O)CN(C(C)C)C(C)C,-2,0.31
C[C@](O)(CCNc1ncnc2sccc12)c1ccccc1,-14,1.62
CC1(C(=O)NCc2nnc(N)o2)CCCCCC1,-9,0.99
NCc1noc(-c2ccc3c(c2)CCCC3)n1,-10,1.43
O=C(C(O)c1ccccc1)N1CCC(Oc2cccnn2)C1 (configuration not stated),-5,0.85
CC(C)N1CC(NC(=O)N2CCC(c3cnn(C)c3)C2)CC1=O (configuration not stated),-9,1.44
COc1ncccc1C(=O)Nc1cccc(-c2csc(Nc3ccc(F)cc3F)n2)c1,11,-1.38
CCCCN1C(=O)[C@@H]2C(Cc3ccc(O)cc3)NC3(C(=O)Nc4c(C)cc(C)cc43)[C@@H]2C1=O (some centres not stated),-6,1
O=C(c1coc2ccccc12)N1CCn2cnnc2C1,1,-0.13
CCOc1ccc(OCC)c(-c2nc3ccc(-c4ccc(OC)c(OC)c4OC)cc3o2)c1,-20,1.77
Nc1ncncc1C(=O)OCC(=O)N1CCCC1,-12,1.23
COCCN1CCC[C@H](CNC(=O)N2CC(c3nc4ccccc4[nH]3)C2)C1,-8,1.5
O=C(NCc1cccs1)C1CCN(c2cnc(N3CCCCCC3)nc2)CC1,-7,1.07
Cc1n[nH]c(C)c1CCNC(=O)[C@]1(c2ccccc2)CC12CCCC2,-14,2.39
COCC1(O)CCN(C(=O)Nc2ccc(Cl)cn2)CC1,3,-0.72
CCc1cccc(Cl)c1CNCc1nc(C2CC2)n[nH]1,1,-0.18
Nc1ccnc2ccc(-c3ccc(C(=O)N4CCC5(CCO5)CC4)cc3)cc12,11,-1.81
CCc1ocnc1C(=O)N1CCC[C@@]2(CCC(=O)N(CCOC)C2)C1,-9,1.19
Cc1cccc(C[C@@H](CO)Nc2ccnc3c2cnn3C)c1,-10,1.85

SMILES,% Inhibition [%],Z score
O=C(c1coc2ccccc12)N1CCC(F)(F)CC1,-12,2.01
CCn1nnc(C)c1CN[C@@H](COC)c1cccc(Cl)c1,-10,2.06
Cn1nc(-c2ccc(F)cc2)cc1C(=O)N1CCC(n2c(=O)[nH]c3ncccc3c2=O)CC1,-11,1.44
CCCc1nc(CN(C)CC(=O)NC2CCCCCC2)no1,7,-1.05
Cc1ccc(NC(=O)CCNC(=O)Cc2coc3cc(C)c(C)cc23)cc1,-7,0.95
Cc1ncoc1-c1nc(COc2ccccc2)nn1CCc1cnc[nH]1,4,-0.69
CCOc1ccccc1[C@H]1C2CCCCC2(O)CCN1C/C=C/c1ccccc1 (some centres not stated),-10,1.31
O=C(O)[C@@H]1CCCN1C(=O)c1ccc(Oc2ccncc2)c(Cl)c1,-2,0.32
COCC1CCN(C(=O)C2CCCCCC2)CC1,12,-1.66
CCCCc1cn(C2CCN(C(=O)[C@H](C)N3CCCC3)CC2)nn1,-11,1.57
CC1CCCCC1NC(=O)CN(C)CCO (configuration not stated),-8,1.47
CC1(C)CC(=O)c2cn(-c3ccc(Cl)cc3)c(=O)c(C(=O)NCCN3CCOCC3)c2C1,-13,1.42
Cc1[nH]c(=O)[nH]c(=O)c1-c1cccc(C(=O)NCCCN2CCCC2=O)c1,-6,1.3
COc1cccc(-c2cc3c(N4CCN(c5ncccn5)CC4)nccn3n2)c1,5,-0.59
COc1cccc(C2(C(=O)N3CCCO[C@@H](CN)C3)CCCC2)c1,-1,0.15
COc1ccc(OC)c(C(=O)N2CC[C@H](C(=O)Nc3cn[nH]c3)C2)c1,-2,0.36
CC(C)c1noc(C(C)N2CCN(C3CCOC3=O)CC2)n1 (configuration not stated),-14,2.32
CCCNC(=O)CNC(=O)C(=O)c1ccc(C(C)(C)C)cc1,-3,0.32
N#Cc1cc2n(n1)CCN(CC1=CCCCC1)C2,-10,1.9
Cc1nn(C)c2ncnc(N(C)Cc3cc(C(C)C)on3)c12,0,0.04
